Article PMC4336329 (PLoS ONE, 2015)
In all, about 310,000 compounds went through this assay and about 2,200 (0.71%) showed an effect of 50% or more. The effect is printed as a negative number. Some of the results follow.

Molecular target: human ether-à-go-go-related gene (hERG) potassium channel (human, UniProt Q12809)
Test: primary screen, population patch clamp on CHO cells stably expressing hERG

Sequence of human ether-à-go-go-related gene (hERG) potassium channel (Q12809 whole entry, looked up): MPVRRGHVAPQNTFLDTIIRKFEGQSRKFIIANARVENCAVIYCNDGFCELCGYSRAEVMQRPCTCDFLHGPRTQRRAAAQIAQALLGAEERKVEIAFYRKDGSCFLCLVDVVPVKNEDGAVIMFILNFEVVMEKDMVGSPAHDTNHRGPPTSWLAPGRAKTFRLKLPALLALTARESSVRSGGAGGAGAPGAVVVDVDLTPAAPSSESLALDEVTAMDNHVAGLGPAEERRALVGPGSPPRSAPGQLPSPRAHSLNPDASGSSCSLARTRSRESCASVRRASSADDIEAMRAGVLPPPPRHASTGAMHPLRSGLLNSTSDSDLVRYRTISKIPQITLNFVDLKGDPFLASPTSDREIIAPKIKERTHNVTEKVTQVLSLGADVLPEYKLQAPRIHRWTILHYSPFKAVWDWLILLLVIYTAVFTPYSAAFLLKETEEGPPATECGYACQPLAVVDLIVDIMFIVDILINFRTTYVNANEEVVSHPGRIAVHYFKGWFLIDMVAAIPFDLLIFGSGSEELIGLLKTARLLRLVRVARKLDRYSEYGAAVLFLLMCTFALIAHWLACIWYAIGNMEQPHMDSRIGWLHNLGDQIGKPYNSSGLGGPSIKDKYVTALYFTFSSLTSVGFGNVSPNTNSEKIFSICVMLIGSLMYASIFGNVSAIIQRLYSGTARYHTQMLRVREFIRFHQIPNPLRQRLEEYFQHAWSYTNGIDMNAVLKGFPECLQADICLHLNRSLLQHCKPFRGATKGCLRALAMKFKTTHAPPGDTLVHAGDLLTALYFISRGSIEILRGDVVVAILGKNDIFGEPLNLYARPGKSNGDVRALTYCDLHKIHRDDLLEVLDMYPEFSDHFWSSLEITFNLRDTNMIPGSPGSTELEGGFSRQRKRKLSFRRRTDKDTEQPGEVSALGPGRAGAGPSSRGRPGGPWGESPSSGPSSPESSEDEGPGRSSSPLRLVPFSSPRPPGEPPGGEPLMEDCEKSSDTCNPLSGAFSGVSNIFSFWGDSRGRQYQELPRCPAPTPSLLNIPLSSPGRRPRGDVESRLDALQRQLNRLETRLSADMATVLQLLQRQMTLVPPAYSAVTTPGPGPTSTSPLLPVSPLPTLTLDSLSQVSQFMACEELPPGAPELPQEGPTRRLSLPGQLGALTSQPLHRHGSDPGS

| Structure (SMILES) | hERG current change (%, negative = inhibition) at 1uM |
| --- | --- |
| Cc1ccc(Cn2ccc(NC(=O)c3nn(C)cc3[N+](=O)[O-])n2)cc1 | 12.2% |
| COc1cc(/C=C2/C(=N)N3C(SC)=NSC3=NC2=O)ccc1OC(=O)c1ccco1 | 16.4% |
| COc1ccc(N2C(=O)CC(Sc3ccccc3C(=O)O)C2=O)c([N+](=O)[O-])c1 (centres unmarked) | 15% |
| CC(=O)NC12CC3CC(C1)CC(C(=O)Nc1nc4ccc(S(C)(=O)=O)cc4s1)(C3)C2 | 11.8% |
| CC1CCCN(c2nc(-c3cccnc3)nc3scc(-c4ccccc4)c23)C1 (centres unmarked) | 9.7% |
| CCCn1cc(SCC(=O)Nc2nnc(C)s2)c2ccccc21 | 16% |
| CCOC(=O)CNc1ccc(C(=O)OCC)cc1[N+](=O)[O-] | 4.36% |
| Cc1ccc(S[C@@H](CCN2CC[C@H](O)CCC2=O)c2ccccc2)cc1 | 9.99% |
| CCN(CCO)c1ncnc2c1sc1nc(CC(C)C)c3c(c12)CC(C)(C)OC3 | 14.1% |
| CCOC(=O)C1CCN(C(=O)COc2ccc(Br)cc2Br)CC1 | -12% |
| O=C(O)[C@H]1CCCC[C@H]1C(=O)NCCNC(=O)[C@@H]1CCCC[C@@H]1C(=O)O | 11.8% |
| Cc1nn(-c2ccc(F)cc2)c(Cl)c1/C=C(\CCC(=O)O)c1nc2ccccc2s1 | 4.11% |
| O=C1NC2c3ccccc3CC2O1 (centres unmarked) | 14.3% |
| COc1ccc(OC)c(S(=O)(=O)N(C)CC(=O)N2CCOCC2)c1 | 12.9% |
| COc1ccccc1NC(=O)c1cnc2c(-c3ccccc3)c(C)nn2c1C | 17.9% |
| O=C(O)COc1ccc2nsnc2c1Cl | 3.81% |
| CC(CCc1ccccc1)NC(=O)CN(C)Cc1ccc(F)cc1 (centres unmarked) | 6.38% |
| CCCCC(=O)N(CCOC)c1nnc(-c2ccc(OC)cc2)s1 | 10% |
| O=C(NCc1ccccc1)C(=O)NCC1OCCN1S(=O)(=O)c1ccc(Br)cc1 (centres unmarked) | 8.89% |

| Structure (SMILES) | hERG current change (%, negative = inhibition) at 1uM |
| --- | --- |
| O=C(NC1CCS(=O)(=O)C1)C1CCCCN1S(=O)(=O)c1ccc(Cl)cc1 (centres unmarked) | 9.91% |
| COC(=O)c1ccccc1NC(=O)CSc1nncn1-c1cccnc1 | 3.72% |
| CN1CCNC(=O)C1CC(=O)O (centres unmarked) | 5.33% |
| Cn1c(=O)c2c(SCC(=O)N3CCCC3)nc(-c3ccccc3)nc2n(C)c1=O | 15% |
| O=S(=O)(c1cccc(F)c1)N1CCN(Cc2cc3c(cc2Br)OCCO3)CC1 | 15% |
| Cc1c(C(=O)OCC(=O)N2CC(C)CC(C)C2)oc2ccccc12 (centres unmarked) | 7.8% |
| COc1ccc(N2CCN(c3oc(Cc4cccc5ccccc45)nc3C#N)CC2)cc1 | -5.62% |
| COc1ccc(S(=O)(=O)NC2CC(=O)N(c3ccc(C)c(C)c3)C2)cc1 (centres unmarked) | 19% |
| Nc1ccc(O)c(C(=O)O)c1 | -3.53% |
| O=c1c2cc(N3CCOCC3)ccc2[nH]c(=S)n1Cc1cccc(Cl)c1 | 4.86% |
| Fc1ccc(NC(=S)Nc2ccc(Cl)cc2)cc1 | 7.08% |
| Cc1ccc(C(=O)Nn2cnnc2)cc1[N+](=O)[O-] | 8.15% |
| C=CCc1c(C)nc(-c2ccccc2)nc1N/N=C/c1ccccc1 | -1.93% |
| CCn1c(COc2ccc(C)cc2)nnc1SCC(=O)NNC(=O)c1ccc(OC)cc1 | 9.58% |
| CCOCCn1c(CN2CCN(C(=O)c3ccco3)CC2)nc2c1c(=O)n(C)c(=O)n2C | 2.56% |
| O=C(O)c1cccc(N2C(=O)c3cc4cccc(Br)c4cc3C2=O)c1 | 12.7% |
| Cc1cc(=O)n2nc(N3CCC(C(=O)N4CCN(c5ccccc5)CC4)CC3)sc2n1 | 2.91% |
| COc1ccc(-c2noc(CCCOc3ccccc3)n2)cc1OC | -4.17% |
| CCCc1cc2nnc(SCC(=O)N(C)C3CCCCC3)n2c(N)n1 | 1.23% |

| Structure (SMILES) | hERG current change (%, negative = inhibition) at 1uM |
| --- | --- |
| COc1cccc(Oc2ccc(C(F)(F)F)cc2NC(=O)C2=COCCO2)c1 | -3.29% |
| CC(=O)Nc1cc(C(=O)OCC(=O)c2ccc(C)cc2)ccc1C | 12.3% |
| Clc1ccccc1CSc1nnc(Cn2cnc3ccccc32)n1-c1ccccc1 | 3.69% |
| COC(=O)NCC(c1cccnc1)N1CCN(c2ccccc2OC)CC1 (centres unmarked) | 1.22% |
| CCN(CC)S(=O)(=O)c1ccc(Cl)c(C(=O)Nc2cc(C)nn2-c2ccccc2)c1 | -2.61% |
| CCCOc1ccc(-c2nc3c(c(=O)[nH]c(=O)n3Cc3ccccc3)n2CCO)cc1OCC | 3.51% |
| Cc1nnc(SCCC#N)n(CCC#N)c1=O | 11.6% |
| Cc1nn(C)cc1C(C)NC(=O)c1cc(COc2c(F)cccc2F)on1 (centres unmarked) | 7.63% |
| C/C(=N\Nc1nc2ccccc2[nH]1)c1ccc(N2CCOCC2)cc1 | 8.59% |
| NCCN1CCN(S(=O)(=O)c2ccc([N+](=O)[O-])cc2)C=C1c1ccc(Cl)cc1 | -5.08% |
| CCn1ncc(/C=C/C(=O)C2CC2)c1C | 21.8% |
| O=C(Nc1ccc2ncccc2c1)c1cccc(Br)c1 | 8.61% |
| COc1cccc(NC(=O)Cn2c3ccccc3c3nc4n(c(=O)c32)CCCS4)c1 | 19.5% |
| COc1ccc(CNC(=O)C(c2ccco2)N(C(=O)Cc2cccs2)c2cccnc2)cc1 (centres unmarked) | -2.09% |
| CCOC(=O)c1c(C)[nH]c(=S)c(C#N)c1-c1ccccc1 | 14.1% |
| Cc1ccsc1/C=N/n1c(=S)[nH]nc(C)c1=O | 8.91% |
| CCCCc1ccc(S(=O)(=O)Nc2ccc(C)c(NS(C)(=O)=O)c2)cc1 | 9.43% |
| O=C(N/C(=C\c1ccco1)C(=O)N1CCOCC1)c1ccccc1Cl | 12.9% |
